# Experimental data published in a collection of fitness landscapes (doi:10.1126/science.1257360).
# The list shows a part of the results.
# B1: PhoQ; a variant is named by its letters at X, in order, P23837 (parent)
# chain: MKKLLRLFFPLSLRVRFLLATAAVVLVLSLAYGMVALIGYSVSFDKTTFRLLRGESNLFYTLAKWENNKLHVELPENIDKQSPTMTLIYDENGQLLWAQRDVPWLMKMIQPDWLKSNGFHEIEADVNDTSLLLSGDHSIQQQLQEVREDDDDAEMTHSVAVNVYPATSRMPKLTIVVVDTIPVELKSSYMVWSWFIYVLSANLLLVIPLLWVAAWWSLRPIEALAKEVRELEEHNRELLNPATTRELTSLVRNLNRLLKSERERYDKYRTTLTDLTHSLKTPLXXLQXXLRSLRSEKMSVSDAEPVMLEQISRISQQIGYYLHRASMRGGTLLSRELHPVAPLLDNLTSALNKVYQRKGVNISLDISPEISFVGEQNDFVEVMGNVLDNACKYCLEFVEISARQTDEHLYIVVEDDGPGIPLSKREVIFDRGQRVDTLRPGQGVGLAVAREITEQYEGKIVAGESMLGGARMEVIFGRQHSAPKDE
# Variants of: B1
# Experiment: enrichment ratio after two sorts for PhoP signalling (ratio (wild type AVST 3.29)); higher = more functional
# Settings: with PhoP (E. coli)
row,Variant,enrichment ratio
1,FLSN,≤ 0.25
2,ECMN,≤ 0.25
3,ASAC,6.45
4,SNVD,≤ 0.25
5,EIPM,≤ 0.25
6,QFLC,≤ 0.25
7,WVGF,≤ 0.25
8,HWDG,≤ 0.25
9,WEFD,≤ 0.25
10,MYYS,≤ 0.25
11,MAWE,≤ 0.25
12,LVSA,≤ 0.25
13,MTSR,≤ 0.25
14,MEKF,≤ 0.25
15,VRVG,≤ 0.25
16,HKVQ,≤ 0.25
17,TVRY,≤ 0.25
18,HEQK,≤ 0.25
19,ALLI,5
20,VLHD,≤ 0.25
21,NCSY,≤ 0.25
22,SQNV,≤ 0.25
23,FDYS,≤ 0.25
24,QCRY,≤ 0.25

row,Variant,enrichment ratio
1,PMAD,≤ 0.25
2,SNCR,4.32
3,QMYF,3.48
4,AVVG,11.2
5,WCRI,≤ 0.25
6,WVSG,≤ 0.25
7,LYQF,≤ 0.25
8,FFCC,≤ 0.25
9,NHIL,≤ 0.25
10,DMLS,≤ 0.25
11,AESF,14.8
12,SEHY,≤ 0.25
13,SRYQ,≤ 0.25
14,YRHT,≤ 0.25
15,RHTK,≤ 0.25
16,SNVK,≤ 0.25
17,VSQD,≤ 0.25
18,ICQM,≤ 0.25
19,DGDF,≤ 0.25
20,LQRD,0.331
21,VTQK,≤ 0.25
22,RQQL,≤ 0.25
23,MESY,14.8
24,VLHI,≤ 0.25

row,Variant,enrichment ratio
1,GCWF,≤ 0.25
2,FRAN,≤ 0.25
3,YGVI,1.95
4,INWK,≤ 0.25
5,QVGN,≤ 0.25
6,LHRY,≤ 0.25
7,FRHM,≤ 0.25
8,AYVA,≤ 0.25
9,SRFW,≤ 0.25
10,WSYT,≤ 0.25
11,LYLK,≤ 0.25
12,ITQE,≤ 0.25
13,FDAI,≤ 0.25
14,YWSR,≤ 0.25
15,EASG,≤ 0.25
16,MSCA,0.541
17,VWRA,≤ 0.25
18,QAFV,≤ 0.25
19,PLYP,≤ 0.25
20,DFNK,≤ 0.25
21,LQGA,≤ 0.25
22,TIIY,≤ 0.25
23,QEKA,≤ 0.25
24,PCWA,≤ 0.25

row,Variant,enrichment ratio
1,HTMP,≤ 0.25
2,HVWS,≤ 0.25
3,RRYF,≤ 0.25
4,SLVW,≤ 0.25
5,HYCA,≤ 0.25
6,QTHI,≤ 0.25
7,ETMF,≤ 0.25
8,HHSL,≤ 0.25
9,RCAC,≤ 0.25
10,GFKS,≤ 0.25
11,HIPW,≤ 0.25
12,AHIG,≤ 0.25
13,IGCM,1.02
14,AQGD,≤ 0.25
15,WHWK,≤ 0.25
16,SMGH,1.91
17,QLRM,≤ 0.25
18,QEIM,≤ 0.25
19,RKKN,≤ 0.25
20,FMYI,≤ 0.25
21,PWIK,≤ 0.25
22,KAAS,≤ 0.25
23,YGKI,≤ 0.25
24,DFMN,≤ 0.25

row,Variant,enrichment ratio
1,TVHH,≤ 0.25
2,ICAK,≤ 0.25
3,DYEF,≤ 0.25
4,WMVW,≤ 0.25
5,FWPH,≤ 0.25
6,VDSC,≤ 0.25
7,YRVT,≤ 0.25
8,AFSW,0.44
9,LKDW,≤ 0.25
10,WWVS,≤ 0.25
11,EDQM,≤ 0.25
12,DKYN,≤ 0.25
13,KASF,≤ 0.25
14,TNVL,≤ 0.25
15,PYAK,≤ 0.25
16,SEAM,15.9
17,HHTL,≤ 0.25
18,SKSY,3.07
19,LWAF,≤ 0.25
20,WIRA,≤ 0.25
21,PKFC,≤ 0.25
22,QHAF,≤ 0.25
23,ATLR,9.35
24,QNPP,≤ 0.25

row,Variant,enrichment ratio
1,QEYF,≤ 0.25
2,TCYP,≤ 0.25
3,AKWF,≤ 0.25
4,STSV,9.12
5,TQVY,7.6
6,FCGT,≤ 0.25
7,MSVE,≤ 0.25
8,TYDE,≤ 0.25
9,YKVE,≤ 0.25
10,APAI,≤ 0.25
11,SKRP,≤ 0.25
12,IYKF,≤ 0.25
13,TQPW,≤ 0.25
14,INTH,≤ 0.25
15,IYDQ,≤ 0.25
16,TLTS,7.02
17,DPVP,≤ 0.25
18,RRKY,≤ 0.25
19,GRTP,≤ 0.25
20,FIKW,≤ 0.25
21,RVKL,≤ 0.25
22,HMQP,≤ 0.25
23,YSNE,≤ 0.25
24,TYPA,≤ 0.25

row,Variant,enrichment ratio
1,TLMT,1.03
2,NISL,0.771
3,YNHD,≤ 0.25
4,MCRH,≤ 0.25
5,GKQI,≤ 0.25
6,SQTF,4.85
7,HLNL,2.18
8,GENL,≤ 0.25
9,KGQR,≤ 0.25
10,DLAP,≤ 0.25
11,PAGA,≤ 0.25
12,NQCG,≤ 0.25
13,MMCM,≤ 0.25
14,QFFN,≤ 0.25
15,QGAN,≤ 0.25
16,FKVD,≤ 0.25
17,QMDP,≤ 0.25
18,ECVK,≤ 0.25
19,AMRF,≤ 0.25
20,VDET,≤ 0.25
21,YMSH,≤ 0.25
22,NMYM,≤ 0.25
23,AMAQ,12.1
24,IVVW,≤ 0.25

row,Variant,enrichment ratio
1,TFSC,7.99
2,TDVI,11.8
3,AISR,3.71
4,PVCP,≤ 0.25
5,PGFV,≤ 0.25
6,TYYM,≤ 0.25
7,TFKD,≤ 0.25
8,DYRS,≤ 0.25
9,VMQN,≤ 0.25
10,ASAR,≤ 0.25
11,GTAV,≤ 0.25
12,YMAY,≤ 0.25
13,TYSY,≤ 0.25
14,YMED,≤ 0.25
15,TLLF,≤ 0.25
16,QCQP,≤ 0.25
17,GHCW,≤ 0.25
18,VRDA,≤ 0.25
19,QEIF,≤ 0.25
20,YYRC,≤ 0.25
21,SKIR,≤ 0.25
22,LQSK,≤ 0.25
23,YAYW,≤ 0.25
24,HFPD,≤ 0.25

row,Variant,enrichment ratio
1,PSAG,≤ 0.25
2,IYFF,≤ 0.25
3,KSHL,≤ 0.25
4,DRMQ,≤ 0.25
5,HELQ,≤ 0.25
6,FRDA,≤ 0.25
7,QRDC,≤ 0.25
8,WYID,≤ 0.25
9,TMVW,≤ 0.25
10,FINY,≤ 0.25
11,DYAW,≤ 0.25
12,FGML,22.9
13,TYQE,≤ 0.25
14,IQHT,≤ 0.25
15,WPQY,≤ 0.25
16,KTQG,≤ 0.25
17,AHAW,≤ 0.25
18,SIPK,≤ 0.25
19,YRDE,≤ 0.25
20,QLYR,0.63
21,TWSD,≤ 0.25
22,EDDI,≤ 0.25
23,RQDQ,≤ 0.25
24,NICH,≤ 0.25

row,Variant,enrichment ratio
1,VQFG,≤ 0.25
2,DCNT,≤ 0.25
3,SKTI,14.2
4,PYFV,≤ 0.25
5,VPNA,≤ 0.25
6,DMDH,≤ 0.25
7,TPRP,≤ 0.25
8,ANPM,≤ 0.25
9,TGMW,≤ 0.25
10,YSKC,≤ 0.25
11,YMIV,≤ 0.25
12,GWYQ,≤ 0.25
13,NQRY,≤ 0.25
14,FMIF,≤ 0.25
15,KHGA,≤ 0.25
16,KILW,≤ 0.25
17,EKQR,≤ 0.25
18,NVVS,≤ 0.25
19,QHVG,≤ 0.25
20,DEHE,≤ 0.25
21,AKRI,≤ 0.25
22,KYSI,≤ 0.25
23,NFLL,≤ 0.25
24,QWSM,≤ 0.25

row,Variant,enrichment ratio
1,NDSL,≤ 0.25
2,PGPH,≤ 0.25
3,ALGT,≤ 0.25
4,DWHP,≤ 0.25
5,TQSC,15.3
6,LCSE,≤ 0.25
7,YQKV,≤ 0.25
8,QYYY,≤ 0.25
9,HKEH,≤ 0.25
10,RTQK,≤ 0.25
11,PYWG,≤ 0.25
12,TWGE,≤ 0.25
13,ERWT,≤ 0.25
14,FWVK,≤ 0.25
15,DVDE,≤ 0.25
16,KAYV,≤ 0.25
17,IATF,≤ 0.25
18,RWSP,≤ 0.25
19,WMHC,≤ 0.25
20,CCTT,≤ 0.25
21,NHFP,≤ 0.25
22,FWNS,≤ 0.25
23,NLWI,≤ 0.25
24,NHHF,≤ 0.25

row,Variant,enrichment ratio
1,SYDD,≤ 0.25
2,SLLQ,7.5
3,CHAM,≤ 0.25
4,DAAH,≤ 0.25
5,IAKA,≤ 0.25
6,VGSF,≤ 0.25
7,FRND,≤ 0.25
8,DGMF,≤ 0.25
9,VRRM,≤ 0.25
10,WYHV,≤ 0.25
11,LFGV,≤ 0.25
12,AYAK,≤ 0.25
13,IIWT,≤ 0.25
14,SVVN,5.76
15,QHAV,≤ 0.25
16,VEIK,≤ 0.25
17,IVFL,≤ 0.25
18,PHHM,≤ 0.25
19,THTP,≤ 0.25
20,ENCS,≤ 0.25
21,ATQG,≤ 0.25
22,RSWM,≤ 0.25
23,FTEF,≤ 0.25
24,MDYC,≤ 0.25

row,Variant,enrichment ratio
1,TSHD,≤ 0.25
2,DDQH,≤ 0.25
3,WSRH,≤ 0.25
4,GGYS,≤ 0.25
5,GEYY,≤ 0.25
6,WRGT,≤ 0.25
7,NTLM,2.77
8,VVYI,≤ 0.25
9,PWHQ,≤ 0.25
10,YLFK,≤ 0.25
11,QSQA,≤ 0.25
12,CFWP,≤ 0.25
13,EHAL,≤ 0.25
14,VANY,≤ 0.25
15,DHIC,≤ 0.25
16,NDYE,≤ 0.25
17,IAWS,≤ 0.25
18,WYYV,≤ 0.25
